# Assay results reported in ChEMBL document CHEMBL4888484, “Replenishing the malaria drug discovery pipeline: Screening and hit evaluation of the MMV Hit Generation Library 1 (HGL1) against asexual blood stage Plasmodium falciparum ,using a nano luciferase reporter read-out” (2022).
# Among all 150,000 compounds or so, about 540 (0.36%) showed an effect of 50% or more. This is one part of the list.
# Tested on: Plasmodium falciparum
# Assay: Primary screen in NF54 nanoGlo assay, in single point, at 2uM, 72h; a lower Z score goes with more inhibition
# Format: functional, Erythrocyte
# Conditions: timepoint 72 hour
Compound,% Inhibition [%],Z score
O=c1[nH]ccc2ccc(-c3cc(OC(F)(F)F)ccc3O)cc12,-15,1.65
CC(=O)N1CCN(c2nc3c(c(=O)[nH]c(=O)n3C)n2Cc2c(F)cccc2Cl)CC1,32,-3.5
COCCNc1ccccc1CNC(=O)c1cncc(C)c1O,-12,1.21
CN(C/C=C/c1ccccc1)C(=O)NC[C@H]1CCCN(Cc2ccco2)C1,-9,1.79
CC[C@@H](Cc1ccccc1)N(CC)C(=O)Nc1ccc(NC(=O)c2ccco2)c(Cl)c1,-8,1.6
CC(C)[C@H](NC(=O)CCCNC(=O)c1cnccn1)c1nc2ccccc2n1C,-14,1.8
CN1C(=O)CC[C@]2(CNC(=O)c3ccc4ccccc4n3)CCCC=C12,-3,0.47
O=C(COC[C@H]1CCCCO1)N1CCC2(CCCC2)C1,-11,1.29
COc1ccccc1CCCNc1cc([C@H]2C[C@@H](NC(C)=O)C2)ncn1,-13,2.47
CN(C)c1nccnc1O[C@H]1CCCN(C(=O)Cc2cccs2)C1,-5,0.78
CC[C@H](NC(=O)N(C)Cc1ccoc1)c1nc(C)no1,5,-0.7
Cc1ccc2c(c1)NC(=O)c1cc(S(=O)(=O)N3CCCC3)c(N3CCCC3)cc1O2,-14,1.94
COc1cccc([C@@H]2Cn3nnc(-c4nc(-c5cccc(C)c5)no4)c3CO2)c1,-12,2.16
CN(Cc1nnc2n1CCOCC2)C(=O)c1ccc(-c2ccncc2)o1,-2,0.25
O=C(NCc1ccncc1)c1coc(COc2cccc3cccnc23)n1,1,-0.26
N#Cc1ccc(-n2nnc3ccccc32)cc1,-7,0.88
CC(O)CC1COCCN1Cc1sccc1Cl (stereo unspecified),-2,0.17
CCCc1ccc(CN(C)Cc2cnn(C)c2)o1,-2,0.41
CC1=NN(C)C(=O)[C@H]1C(=O)NCc1ccco1,-5,0.97
CCc1ccc(C(=O)N2CCC3(CCN(Cc4ncc[nH]4)CC3)[C@@H](CO)C2)[nH]1,-16,2.01
Cc1nc(-c2sc(C(C)C)nc2C)n(C2CCN(C)CC2)n1,2,-0.42
CCOC(=O)/C(N)=N/NC(=O)Cc1ccc(F)cc1,-3,0.37
COc1ccc(Cn2c(C)c(C3=CCN(S(=O)(=O)c4c(C)noc4C)CC3)c3ccccc32)cc1,-4,0.58
